Patent US8241860B2, “Cell free methods for detecting protein-ligand binding” (The Arizona Board of Regents of Behalf of the University of …, priority 2007, dated 2012)

Tests used:
zinc finger/DNA = test: Irrelevant zinc finger/DNA cell-free split-luciferase control assay; format: binding; settings: excess chetomin or PKI-peptide
[1] = target: interaction between HIF-1α and p300 (Homo sapiens, UniProt Q09472); test: biochemical

CN1C(=O)[C@]2(Cc3cn([C@]45C[C@@]67SS[C@@](CO)(C(=O)N6[C@H]4Nc4ccccc45)N(C)C7=O)c4ccccc34)SS[C@@]1(CO)C(=O)N2C [chetomin]
effect on signal generation in the irrelevant zinc finger/DNA cell-free assay (zinc finger/DNA): no effect on signal generation | IC50 [1]: 290 nM
